Over roughly 81,000 sequences, “one-hybrid fitness for binding NBS DNA” has its median near -0.1; the highest 2% begin near 0.36. The list shows a part of the results.
B1: Caulobacter ParB omega fusion; a variant is named by its letters at X, in order, B8GW30 (parent)
chain: MESVVVGEPGMSEGRRGLGRGLSALLGEVDAAPAQAPGEQLGGSREAPIEILQRNPDQPRRTFREEDLEDLSNSIREKGVLQPILVRPSPDTAGEYQIVAGERAWRAAQRAGLKTVPIMVRELDDLAVLEIGIIENVQRADLNVLEEALSYKVLMEKFERTQENIAQTIGKSXSHVANXMRLLXLPDEVQSYLVSGELTAXHARAIAAAADPVALAKQIIEGGLSVRETEALARKAPNLSAGKSKGGRPPRVKDTDTQALESDLSSVLGLDVSIDHRGSTGTLTITYATLEQLDDLCNRLTRGI

Variants of: B1
Experiment: one-hybrid fitness for binding NBS DNA (the Noc-binding site; scaled: cognate 1, non-cognate 0); higher = stronger binding
Conditions: with NBS DNA site
Outline: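 In E. coli USO, a HIS3 reporter with its site placed 19 bp from the promoter was used to select Caulobacter ParB variants randomised at four specificity codons. Growth lasted 48 hours at 37°C on histidine-free M9 containing 0.1 mM IPTG and 5 mM 3-AT. Fitness was taken as the log change in variant-to-wild-type read ratio from Illumina sequencing of pre- and post-selection plasmids, rescaled between the non-cognate and cognate sites.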

Variant | one-hybrid fitness for binding NBS DNA
TNSV | ≤ 0.2
SLPQ | ≤ 0.2
NSMW | ≤ 0.2
QEDT | ≤ 0.2
IACT | ≤ 0.2
NRVT | ≤ 0.2
IANC | ≤ 0.2
GHDG | ≤ 0.2
AAYK | ≤ 0.2
CYPS | ≤ 0.2
LRMA | ≤ 0.2
YHID | ≤ 0.2
ILVS | ≤ 0.2
RKRF | ≤ 0.2
HQKC | ≤ 0.2
YANV | ≤ 0.2
SMIF | ≤ 0.2
AVWT | ≤ 0.2
AVNR | ≤ 0.2
GDKF | ≤ 0.2
QQLI | ≤ 0.2
LIAS | ≤ 0.2
LDTP | ≤ 0.2
MLLH | ≤ 0.2

Variant | one-hybrid fitness for binding NBS DNA
MTDE | ≤ 0.2
QPRY | ≤ 0.2
HSQV | ≤ 0.2
SKRT | ≤ 0.2
STYF | ≤ 0.2
CPKR | ≤ 0.2
WSCD | ≤ 0.2
NGRW | ≤ 0.2
EKRG | ≤ 0.2
WDGG | ≤ 0.2
NEFG | ≤ 0.2
LSPI | ≤ 0.2
MWPS | ≤ 0.2
VNLI | ≤ 0.2
YYSR | ≤ 0.2
TYSR | ≤ 0.2
HGCC | ≤ 0.2
NPPV | 0.289
WMGT | ≤ 0.2
DQNS | ≤ 0.2
GWIT | ≤ 0.2
HHTG | ≤ 0.2
AWTR | ≤ 0.2
QVCS | 0.311

Variant | one-hybrid fitness for binding NBS DNA
KTMA | ≤ 0.2
TVGC | ≤ 0.2
SDYH | ≤ 0.2
QYCR | 0.462
SKHT | ≤ 0.2
PRDG | ≤ 0.2
GKWW | ≤ 0.2
DREA | ≤ 0.2
TFKK | ≤ 0.2
NVQV | ≤ 0.2
KATH | ≤ 0.2
FYQV | ≤ 0.2
YNGG | ≤ 0.2
KYAD | ≤ 0.2
MNRC | ≤ 0.2
KVTF | ≤ 0.2
REYV | ≤ 0.2
RMKH | 0.402
QVVI | ≤ 0.2
FRKL | ≤ 0.2
KHHS | ≤ 0.2
SAEG | ≤ 0.2
PLNW | ≤ 0.2
DFHS | ≤ 0.2

Variant | one-hybrid fitness for binding NBS DNA
HKGR | ≤ 0.2
PQAV | ≤ 0.2
HMFC | ≤ 0.2
WTYT | ≤ 0.2
NRIC | ≤ 0.2
QNSA | ≤ 0.2
PDCL | ≤ 0.2
ACSS | ≤ 0.2
YILG | ≤ 0.2
KMKL | 0.274
MTRT | ≤ 0.2
YMDS | ≤ 0.2
LKQM | ≤ 0.2
EGDT | ≤ 0.2
KSLW | ≤ 0.2
MPRA | ≤ 0.2
VSTA | ≤ 0.2
QLVP | ≤ 0.2
KGLS | ≤ 0.2
TNFS | ≤ 0.2
AHAT | ≤ 0.2
YGTS | ≤ 0.2
TGRA | ≤ 0.2
CRTQ | ≤ 0.2

Variant | one-hybrid fitness for binding NBS DNA
MTPR | ≤ 0.2
IITS | ≤ 0.2
DMHS | ≤ 0.2
TGQV | ≤ 0.2
VAHC | ≤ 0.2
QIHY | ≤ 0.2
ARHY | ≤ 0.2
NMAG | ≤ 0.2
YELI | ≤ 0.2
SVED | ≤ 0.2
GWPF | ≤ 0.2
KHSY | ≤ 0.2
RLTH | ≤ 0.2
AFKR | ≤ 0.2
HEGL | ≤ 0.2
GQSN | ≤ 0.2
WYKG | ≤ 0.2
DSYS | ≤ 0.2
SRMK | ≤ 0.2
SISY | ≤ 0.2
DILC | ≤ 0.2
NTMI | ≤ 0.2
RICD | ≤ 0.2
YSEG | ≤ 0.2

Variant | one-hybrid fitness for binding NBS DNA
HQSW | ≤ 0.2
QQGR | 0.672
SDMD | ≤ 0.2
RSWH | ≤ 0.2
VHLN | ≤ 0.2
LFIY | ≤ 0.2
TRLM | ≤ 0.2
QMHR | 0.647
SISL | ≤ 0.2
TQNR | ≤ 0.2
NPKL | ≤ 0.2
RFND | ≤ 0.2
SIWG | ≤ 0.2
PARF | ≤ 0.2
LVFF | ≤ 0.2
HKSC | ≤ 0.2
TPIM | ≤ 0.2
GPVM | ≤ 0.2
KTVG | ≤ 0.2
ERES | ≤ 0.2
RRVS | 0.605
QNDK | ≤ 0.2
RGQM | ≤ 0.2
TLKM | ≤ 0.2

Variant | one-hybrid fitness for binding NBS DNA
YEPS | ≤ 0.2
SSYW | ≤ 0.2
MNNS | ≤ 0.2
HTRH | ≤ 0.2
YVHS | ≤ 0.2
TGSR | ≤ 0.2
ADKT | ≤ 0.2
AISG | ≤ 0.2
NHRL | ≤ 0.2
RQGM | ≤ 0.2
NATC | ≤ 0.2
RLTS | 0.396
PEAV | ≤ 0.2
MPVR | ≤ 0.2
CSMS | ≤ 0.2
RWYL | ≤ 0.2
TCGF | ≤ 0.2
LHPW | ≤ 0.2
TTRS | ≤ 0.2
ETDI | ≤ 0.2
HVIP | ≤ 0.2
NGKF | ≤ 0.2
AVAD | ≤ 0.2
YHYC | ≤ 0.2

Variant | one-hybrid fitness for binding NBS DNA
WTMC | ≤ 0.2
HIPQ | ≤ 0.2
VFAT | ≤ 0.2
TCDT | ≤ 0.2
TSLD | ≤ 0.2
QKYI | ≤ 0.2
VDYF | ≤ 0.2
TKEM | ≤ 0.2
RVQA | ≤ 0.2
HIMR | ≤ 0.2
WKIG | ≤ 0.2
YKQR | ≤ 0.2
WASS | ≤ 0.2
GRNL | ≤ 0.2
TRES | ≤ 0.2
SAMG | ≤ 0.2
IFLT | ≤ 0.2
DFQV | ≤ 0.2
RFIF | ≤ 0.2
SGTD | ≤ 0.2
LEPF | ≤ 0.2
HTWL | ≤ 0.2
TKCA | ≤ 0.2
QWVD | ≤ 0.2

Variant | one-hybrid fitness for binding NBS DNA
PGCL | ≤ 0.2
VSQT | ≤ 0.2
SIAN | ≤ 0.2
RCNA | 0.298
SKLK | ≤ 0.2
CAYS | ≤ 0.2
RTPF | ≤ 0.2
APVA | ≤ 0.2
CHTM | ≤ 0.2
TQAQ | ≤ 0.2
MGMA | ≤ 0.2
VVGI | ≤ 0.2
WDTA | ≤ 0.2
NWNG | ≤ 0.2
VRQG | ≤ 0.2
RERS | ≤ 0.2
KDLL | ≤ 0.2
FYSG | ≤ 0.2
FYHC | ≤ 0.2
QIQF | ≤ 0.2
WAKV | ≤ 0.2
RFKY | ≤ 0.2
AWLF | ≤ 0.2
SEVT | ≤ 0.2

Variant | one-hybrid fitness for binding NBS DNA
HRKK | ≤ 0.2
VYRW | ≤ 0.2
IHYT | ≤ 0.2
HNRE | ≤ 0.2
PKPK | ≤ 0.2
QPIS | ≤ 0.2
HHLC | ≤ 0.2
PYMG | ≤ 0.2
VLKK | ≤ 0.2
KHCR | ≤ 0.2
VNLK | ≤ 0.2
QDLP | ≤ 0.2
EDCR | ≤ 0.2
PPET | ≤ 0.2
ANKK | ≤ 0.2
NAQS | ≤ 0.2
HDST | ≤ 0.2
IGMD | ≤ 0.2
HPLM | ≤ 0.2
QMER | 0.324
EIYS | ≤ 0.2
LHAT | ≤ 0.2
QMWP | ≤ 0.2
YDGM | ≤ 0.2

Variant | one-hybrid fitness for binding NBS DNA
VTKP | ≤ 0.2
PKRE | ≤ 0.2
PGAD | ≤ 0.2
VDTF | ≤ 0.2
TSLA | ≤ 0.2
AAIY | ≤ 0.2
LKPY | ≤ 0.2
QLEH | ≤ 0.2
FSTA | ≤ 0.2
MAPP | ≤ 0.2
MFTT | ≤ 0.2
SFRT | ≤ 0.2
GPNC | ≤ 0.2
MASA | ≤ 0.2
SDPI | ≤ 0.2
SDPK | ≤ 0.2
YQLN | ≤ 0.2
GVCW | ≤ 0.2
HMAV | ≤ 0.2
LGPM | ≤ 0.2
GRPA | ≤ 0.2
PAKG | ≤ 0.2
ETAK | ≤ 0.2
QDWY | ≤ 0.2

Variant | one-hybrid fitness for binding NBS DNA
FIRR | ≤ 0.2
IALD | ≤ 0.2
CNTC | ≤ 0.2
NWYR | ≤ 0.2
WTPR | ≤ 0.2
NKSC | ≤ 0.2
HTMV | ≤ 0.2
CTFR | ≤ 0.2
CVCT | ≤ 0.2
ELEP | ≤ 0.2
RMPW | ≤ 0.2
RNMW | ≤ 0.2
WQNG | ≤ 0.2
PVHA | ≤ 0.2
VTSA | ≤ 0.2
GAVN | ≤ 0.2
RKFW | ≤ 0.2
LYWA | ≤ 0.2
QIHS | 0.281
YHSW | ≤ 0.2
SPYL | ≤ 0.2
WGPR | ≤ 0.2
GTWR | ≤ 0.2
QKQK | ≤ 0.2

Variant | one-hybrid fitness for binding NBS DNA
QRPF | ≤ 0.2
SKCM | ≤ 0.2
KKDG | ≤ 0.2
IMFG | ≤ 0.2
LANS | ≤ 0.2
DDQL | ≤ 0.2
TARG | ≤ 0.2
TVYR | ≤ 0.2
FRVA | ≤ 0.2
YENS | ≤ 0.2
SQDL | ≤ 0.2
YTGG | ≤ 0.2
VTQR | ≤ 0.2
SDYQ | ≤ 0.2
SPPS | ≤ 0.2
SAWV | ≤ 0.2
QSVD | ≤ 0.2
KDRW | ≤ 0.2

Source: a collection of fitness landscapes (doi:10.1016/j.celrep.2020.107928)
